One test concerns HSkMC. Nature of the test: cytotoxicity call (relative viability < 0.9). To be noted: 10 µM.
The next test deals with HepG2. Nature of the test: cytotoxicity call (relative viability < 0.9). To be noted: 10 µM.
Another test concerns S. aureus RN4220. The experiment in a line: growth inhibition call (relative growth <= 0.2). To be noted: 50 µM.

This is one part of the list.

In the case of `COc1ccc(CN(C)C[C@@H]2Oc3c(NS(C)(=O)=O)cccc3C(=O)N([C@H](C)CO)C[C@H]2C)cc1`, the cytotoxicity call in the test with HSkMC and with HepG2 was “inactive” in each case. For the same compound, in the test on S. aureus RN4220, the growth inhibition call is “inactive”.

Take `C[C@H](CO)N1C[C@H](C)[C@H](CN(C)C(=O)c2cnccn2)Oc2ncc(C#Cc3ccccn3)cc2C1=O`: the cytotoxicity call with HSkMC and in the test with HepG2 was “inactive” in each case. The growth inhibition call in the test with S. aureus RN4220 is “inactive”.

`N[C@@H]1CONC1=O`: the cytotoxicity call with HSkMC and with HepG2 was “inactive” in each case. Besides, in the test with S. aureus RN4220, the growth inhibition call is “inactive”.

On to `COc1ccc(NC(=O)Nc2ccc3c(c2)C(=O)N([C@H](C)CO)C[C@@H](C)[C@@H](CN(C)Cc2ccc(C(F)(F)F)cc2)OCCCC[C@@H](C)O3)cc1`, for which the cytotoxicity call in the test with HSkMC and in the test on HepG2 was “active” each time. In the test with S. aureus RN4220, the growth inhibition call is “inactive”.

Consider `Cc1noc(C)c1S(=O)(=O)N(C)C[C@H]1Oc2c(NC(=O)NC(C)C)cccc2C(=O)N([C@H](C)CO)C[C@H]1C`, for which the cytotoxicity call in the test on HSkMC and in the test on HepG2 was “inactive” in each case. The growth inhibition call with S. aureus RN4220 was “inactive”.

Consider `COc1ccc(S(=O)(=O)N(C)C[C@H]2Oc3ncc(C#CC4(O)CCCC4)cc3C(=O)N([C@@H](C)CO)C[C@H]2C)cc1`, for which the cytotoxicity call with HSkMC and in the test with HepG2 was “inactive” each time. Also, the growth inhibition call in the test with S. aureus RN4220 was “inactive”.

Regarding `C[C@H]1CN([C@@H](C)CO)C(=O)CCCn2cc(nn2)CO[C@H]1CN(C)S(=O)(=O)c1ccc(-n2cccn2)cc1`, the cytotoxicity call in the test on HSkMC and in the test with HepG2 was “inactive” each time. The growth inhibition call in the test with S. aureus RN4220 was “inactive”.

As to `COc1ccc(NC(=O)N(C)C[C@H]2Oc3c(NC(=O)C4CC4)cccc3C(=O)N([C@@H](C)CO)C[C@H]2C)cc1`, the cytotoxicity call with HSkMC and in the test with HepG2 was “inactive” each time. The growth inhibition call in the test with S. aureus RN4220 was “inactive”.

Regarding `C[C@@H]1CCCCO[C@@H](CN(C)C(=O)NC2CCCCC2)[C@@H](C)CN([C@@H](C)CO)C(=O)c2cc(NC(=O)Cc3ccccc3)ccc2O1`, the cytotoxicity call with HSkMC and in the test with HepG2 was “inactive” throughout. Also, the growth inhibition call with S. aureus RN4220 is “inactive”.

Turning to `C[C@@H]1CN([C@H](C)CO)C(=O)Cc2cc(NC(=O)Nc3ccc(F)cc3)ccc2O[C@@H]1CN(C)Cc1ccc(C(F)(F)F)cc1`, the cytotoxicity call in the test on HSkMC and with HepG2 was “active” throughout. For the same compound, the growth inhibition call with S. aureus RN4220 was “inactive”.

Turning to `C[C@@H]1CCCCO[C@H](CN(C)S(C)(=O)=O)[C@H](C)CN([C@@H](C)CO)C(=O)c2cc(NS(=O)(=O)c3ccccc3)ccc2O1`, the cytotoxicity call in the test with HSkMC and in the test on HepG2 was “inactive” each time. Also, the growth inhibition call with S. aureus RN4220 was “inactive”.

In the case of `C[C@@H]1CCCCO[C@@H](CN(C)C(=O)Nc2ccc(F)cc2)[C@@H](C)CN([C@H](C)CO)C(=O)c2cc(NS(=O)(=O)c3ccc(F)cc3)ccc2O1`, the cytotoxicity call with HSkMC and in the test with HepG2 was “inactive” throughout. The growth inhibition call with S. aureus RN4220 was “inactive”.

For the compound `Cc1noc(C)c1S(=O)(=O)Nc1ccc2c(c1)CC(=O)N([C@@H](C)CO)C[C@@H](C)[C@H](CN(C)C(=O)NC1CCCCC1)O2`, the cytotoxicity call in the test with HSkMC and with HepG2 was “inactive” each time. Further, the growth inhibition call in the test with S. aureus RN4220 is “inactive”.

On to `COc1ccc(CN(C)C[C@@H]2OCCCC[C@H](C)Oc3ccc(NC(=O)c4ccccc4)cc3C(=O)N([C@H](C)CO)C[C@H]2C)cc1`, for which the cytotoxicity call in the test on HSkMC and with HepG2 was “inactive” each time. Further, in the test on S. aureus RN4220, the growth inhibition call is “inactive”.

As to `C[C@H](CO)N1C[C@H](C)[C@H](CN(C)S(=O)(=O)c2cn(C)cn2)OCCCC[C@H](C)Oc2ccc(N(C)C)cc2C1=O`, the cytotoxicity call with HSkMC and with HepG2 was “inactive” each time. Besides, the growth inhibition call in the test on S. aureus RN4220 is “inactive”.

For `CC(C)NC(=O)N(C)C[C@@H]1Oc2ccc(NS(=O)(=O)c3ccccc3)cc2CC(=O)N([C@@H](C)CO)C[C@@H]1C`, the cytotoxicity call in the test with HSkMC and in the test with HepG2 was “inactive” throughout. The growth inhibition call in the test on S. aureus RN4220 is “inactive”.

Take `COCCOC(=O)N1C(=O)[C@@]2(c3cc(C#CC4=CCCCC4)ccc31)[C@H](C(=O)N1CCN(c3ncccn3)CC1)[C@H]1C(=O)O[C@H](c3ccccc3)[C@H](c3ccccc3)N1[C@@H]2c1ccc(OCCO)cc1`: the cytotoxicity call in the test on HSkMC and in the test with HepG2 was “inactive” each time. Also, the growth inhibition call in the test with S. aureus RN4220 is “inactive”.

In the case of `CCCNC(=O)C[C@H]1CC[C@@H]2[C@@H](COc3ccc(NS(=O)(=O)c4ccccc4C)cc3C(=O)N2C)O1`, the cytotoxicity call in the test on HSkMC and with HepG2 was “inactive” each time. Further, in the test with S. aureus RN4220, the growth inhibition call is “inactive”.

For the compound `C[C@@H]1CN([C@H](C)CO)C(=O)Cc2cc(NC(=O)Cn3cnnn3)ccc2O[C@H]1CN(C)Cc1ccncc1`, the cytotoxicity call with HSkMC and in the test on HepG2 was “inactive” in each case. Further, in the test with S. aureus RN4220, the growth inhibition call is “inactive”.

`O=C(C[C@H]1CC[C@@H]2[C@H](COC[C@@H](O)CN2S(=O)(=O)c2ccccc2Cl)O1)NCc1ccccc1Cl`: the cytotoxicity call in the test with HSkMC and in the test with HepG2 was “inactive” each time. In addition, the growth inhibition call in the test with S. aureus RN4220 is “inactive”.

For the compound `C[C@@H]1CN([C@@H](C)CO)C(=O)c2cccc(NC(=O)Nc3ccc4c(c3)OCO4)c2O[C@H]1CN(C)S(C)(=O)=O`, the cytotoxicity call with HSkMC and with HepG2 was “inactive” throughout. Moreover, in the test on S. aureus RN4220, the growth inhibition call is “inactive”.

For `CO[C@@H](CN(C)C(=O)c1ccccc1F)[C@H](C)CN([C@@H](C)CO)S(=O)(=O)c1ccc(Cl)cc1`, the cytotoxicity call in the test with HSkMC and with HepG2 was “inactive” each time. The growth inhibition call in the test with S. aureus RN4220 is “inactive”.

In the case of `CO[C@@H]1CN(C)C(=O)c2cc(NC(=O)Nc3cccc(Cl)c3)ccc2OC[C@H](C)N(C(=O)Nc2c(C)noc2C)C[C@H]1C`, the cytotoxicity call in the test on HSkMC (human skeletal muscle cells) and with HepG2 was “inactive” in each case. In the test with S. aureus RN4220, the growth inhibition call was “inactive”.

The record behind these values is the antibiotic and cytotoxicity screens of Wong et al. (2023).
